The text below walks through data of the RNAGym collection of RNA variant scans (doi:10.1073/pnas.2313332121).

The labels stand for the following.
B1: TPR 5TU (parent)
chain: GGAUCUUCUCGAUCUAACAAAAAAGACAAAUCUGCCACAAAGCUUGAGAGCAUCUUCGGAUGCAGAGGCGGCAGCCUUCGGUGGCGCGAUAGCGCCAACGUUCUCAACUAUGACACGCAAAACGCGUGCUCCGUUGAAUGGAGUUUAUCAUG

Variants at the floor of the assay are shown more often than the library holds them.

Variants of B1 are the subject of the data set. The data set is described as follows: polymerase ribozyme fitness, log enrichment relative to wild type (log ratio); higher = more active; in vitro selection for triplet polymerase activity. The gist of the method: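 To select mutant libraries of each subunit of a heterodimeric triplet polymerase ribozyme, built by PCR and transcribed, each was annealed with a biotinylated primer, partner subunit and triplets, then incubated frozen at −7 °C. Extended constructs were gel-excised, captured on streptavidin beads and amplified by RT-PCR, in one round carried out in triplicate. Illumina sequencing of input and output libraries kept genotypes with ≥10 input reads and ≥1 read per output. Fitness is the base-2 logarithm of genotype enrichment relative to wild-type enrichment, from inverse-variance-weighted replicate averages.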
Turning to A17C C43A G59C G68A C95U C105A A107G, the “polymerase ribozyme fitness (log ratio)” value is at most -4.2.

As for A17G A26C C32U G59A C75U, the “polymerase ribozyme fitness (log ratio)” value is at most -4.2.

As to A16U C87U C116U, the “polymerase ribozyme fitness (log ratio)” value was -2.25.

On to A16U U45A U56A C63G G86U A89C C93U U104C C114A C118G A122U, for which the “polymerase ribozyme fitness (log ratio)” value is at most -4.2.

Turning to A17C G46A C57U G58A G84A G140A, the “polymerase ribozyme fitness (log ratio)” value is at most -4.2.

On to A17G A21G U90C A147C A150U, for which the “polymerase ribozyme fitness (log ratio)” value is at most -4.2.

As to A17C A21C A22C U33A A47C G84A U127A, the “polymerase ribozyme fitness (log ratio)” value was at most -4.2.

Consider A17G A20U A49G A60G C79A C93U G152U, for which the “polymerase ribozyme fitness (log ratio)” value is at most -4.2.

Turning to A17C C76U G92U C129A, the “polymerase ribozyme fitness (log ratio)” value is -3.05.

In the case of A17C G25A A37U A40C C87U A97C, the “polymerase ribozyme fitness (log ratio)” value was at most -4.2.

On to A17G A26G G50C A73U G74A C76G G143U, for which the “polymerase ribozyme fitness (log ratio)” value is at most -4.2.

As for A16U U45C C123A, the “polymerase ribozyme fitness (log ratio)” value is -2.97.

Regarding A16U U77C C87G, the “polymerase ribozyme fitness (log ratio)” value is at most -4.2.

For A16U U53C C93U G112U G152U, the “polymerase ribozyme fitness (log ratio)” value was at most -4.2.

Take A16U C54A C85A: the “polymerase ribozyme fitness (log ratio)” value is at most -4.2.

On to A17C C54G G70C C85U A110C, for which the “polymerase ribozyme fitness (log ratio)” value is at most -4.2.

Turning to A16U G59C A150U, the “polymerase ribozyme fitness (log ratio)” value is -0.494.

As for A17G A23C C57U C79U A138C, the “polymerase ribozyme fitness (log ratio)” value was at most -4.2.

In the case of A17C A21G A24C C36G G80C, the “polymerase ribozyme fitness (log ratio)” value is at most -4.2.

In the case of A17C A26U C75A G84A G141U, the “polymerase ribozyme fitness (log ratio)” value was at most -4.2.

In the case of A16U G83A A142G U148A, the “polymerase ribozyme fitness (log ratio)” value is at most -4.2.

As to A17G A28C U55G C99G G141A C149A, the “polymerase ribozyme fitness (log ratio)” value was at most -4.2.

With A17C A22C G42C U78G G84A C103G C123G, the “polymerase ribozyme fitness (log ratio)” value was at most -4.2.

Take A17C A24C A40C G46C G88A A110U: the “polymerase ribozyme fitness (log ratio)” value is at most -4.2.

For A16U C87A, the “polymerase ribozyme fitness (log ratio)” value is at most -4.2.

For the variant A17G A24G A41C G80A C96U C99G U101G A138U G143U, the “polymerase ribozyme fitness (log ratio)” value is at most -4.2.

Take A17C G34A C96G A121G A122C U134C: the “polymerase ribozyme fitness (log ratio)” value was -1.47.

With A17C A23U A40C G86U, the “polymerase ribozyme fitness (log ratio)” value is at most -4.2.

For A17G A20U C35U U45A A47C G67U C85G U127G, the “polymerase ribozyme fitness (log ratio)” value is at most -4.2.

For A17C U45G G59C A91U U104G A122C, the “polymerase ribozyme fitness (log ratio)” value is at most -4.2.

In the case of A17C A29G A89G G92A G152U, the “polymerase ribozyme fitness (log ratio)” value is at most -4.2.

In the case of A17C A66G G141C G152U, the “polymerase ribozyme fitness (log ratio)” value was at most -4.2.

As to A17C A37C A41C U61A G133C G143C, the “polymerase ribozyme fitness (log ratio)” value is at most -4.2.

As for A17C C18U A28U A30G C43U G70A G92C C108U, the “polymerase ribozyme fitness (log ratio)” value is at most -4.2.

As to A17G A37C C43U C85G A147U U151C, the “polymerase ribozyme fitness (log ratio)” value was at most -4.2.

For A17C G42C U56G G88U C95U C96U A110C U139G, the “polymerase ribozyme fitness (log ratio)” value is at most -4.2.

For A16U U33A C76U, the “polymerase ribozyme fitness (log ratio)” value was at most -4.2.

For the variant A17G A37G A40G C95A A120C C129U, the “polymerase ribozyme fitness (log ratio)” value was at most -4.2.

Consider A17G A29U A30C A40C G59U C87A U111G, for which the “polymerase ribozyme fitness (log ratio)” value is at most -4.2.

A17C U31A G92U A98U G141A: the “polymerase ribozyme fitness (log ratio)” value worked out at 0.253.

Turning to A16U U55G C93G, the “polymerase ribozyme fitness (log ratio)” value was at most -4.2.

Take A17C C35U G86A A122G: the “polymerase ribozyme fitness (log ratio)” value is -1.01.

As to A17C A23C U31C C54A G84A A97G, the “polymerase ribozyme fitness (log ratio)” value was at most -4.2.

For A17C A40G C79A U139A, the “polymerase ribozyme fitness (log ratio)” value was at most -4.2.

Take A17C A40G G58A G86A G88C U102C: the “polymerase ribozyme fitness (log ratio)” value was at most -4.2.

Turning to A17C C18G A40U G86U, the “polymerase ribozyme fitness (log ratio)” value was -1.43.

For the variant A17C A23G A26U C36A G62U G65U C69A G84A U145G, the “polymerase ribozyme fitness (log ratio)” value is at most -4.2.

Turning to A17G A22G C43A A49U C57U G71U, the “polymerase ribozyme fitness (log ratio)” value is at most -4.2.

In the case of A17C G58A U82G C118U G133U, the “polymerase ribozyme fitness (log ratio)” value was at most -4.2.

Turning to A16U G58C C75G C93U C103A A115G C132U G141A, the “polymerase ribozyme fitness (log ratio)” value was at most -4.2.

For the variant A17C C43U C63U G88C U144A, the “polymerase ribozyme fitness (log ratio)” value was at most -4.2.

In the case of A17C A26U A37U G46C U56A G67A C93G U111C, the “polymerase ribozyme fitness (log ratio)” value was at most -4.2.

In the case of A17C A28C A29U G133U, the “polymerase ribozyme fitness (log ratio)” value is at most -4.2.

In the case of A17C C43U G50U C87U C116G U144G, the “polymerase ribozyme fitness (log ratio)” value is at most -4.2.

On to A16U U33G U61A C96U, for which the “polymerase ribozyme fitness (log ratio)” value is at most -4.2.

As for A17C G83A G86A U111G G143A, the “polymerase ribozyme fitness (log ratio)” value is at most -4.2.

On to A16U G50C U134G, for which the “polymerase ribozyme fitness (log ratio)” value is at most -4.2.

As for A17C C35U C38U A39U G117A, the “polymerase ribozyme fitness (log ratio)” value was at most -4.2.

For the variant A16U G71U U102G, the “polymerase ribozyme fitness (log ratio)” value is at most -4.2.

Regarding A17G A21G C35A C54A A66U A91G U102C C103G G143C, the “polymerase ribozyme fitness (log ratio)” value was at most -4.2.

For the variant A17C C85U, the “polymerase ribozyme fitness (log ratio)” value was found to be 0.349.

On to A17C C54A C57G A107U, for which the “polymerase ribozyme fitness (log ratio)” value is at most -4.2.

A17G A24U C51U A91U C123A: the “polymerase ribozyme fitness (log ratio)” value is at most -4.2.

A17C A29G G34A A41G U77C C93A U101G: the “polymerase ribozyme fitness (log ratio)” value was at most -4.2.

As for A17C G83U G86C C114A A137G, the “polymerase ribozyme fitness (log ratio)” value is at most -4.2.

A17C U31C C69A A73C C99U G133C: the “polymerase ribozyme fitness (log ratio)” value is at most -4.2.

Take A17C G88C G140C A147C: the “polymerase ribozyme fitness (log ratio)” value is at most -4.2.

Turning to A17C U31C A47C U55A C76U G84U, the “polymerase ribozyme fitness (log ratio)” value was -3.49.

Consider A17C G86U C103U G112U, for which the “polymerase ribozyme fitness (log ratio)” value was at most -4.2.

With A17C C18U C35G U45A C57A C96A C99U C114U G133U, the “polymerase ribozyme fitness (log ratio)” value is at most -4.2.

For A17C C18U C43U A97G U148A, the “polymerase ribozyme fitness (log ratio)” value was at most -4.2.

Turning to A17C A20G G25U G48U U53A G67U G94A C95A, the “polymerase ribozyme fitness (log ratio)” value is at most -4.2.

Turning to A17C U55C G88C A91C U130G G136A A142G, the “polymerase ribozyme fitness (log ratio)” value is at most -4.2.

In the case of A17C C32A U82A G88C C129U, the “polymerase ribozyme fitness (log ratio)” value was at most -4.2.

A17G A21G A52U U56A A91G: the “polymerase ribozyme fitness (log ratio)” value was -4.

As for A17C A52C U61A G81A U90G C118G, the “polymerase ribozyme fitness (log ratio)” value is at most -4.2.

With A16U U56A C76G U77G C118U, the “polymerase ribozyme fitness (log ratio)” value was at most -4.2.

With A16U U31A C54U A66G C95A, the “polymerase ribozyme fitness (log ratio)” value is at most -4.2.

Take A17G A20C U44C C57G G59C C99U C129A: the “polymerase ribozyme fitness (log ratio)” value was at most -4.2.

With A17C G42U G88A U101C C108U, the “polymerase ribozyme fitness (log ratio)” value is at most -4.2.

As for A16U G50C C51G U55G C57U C79G G94U A110G A115G U139A, the “polymerase ribozyme fitness (log ratio)” value was at most -4.2.

For A17C C87G C116G A120C U144A, the “polymerase ribozyme fitness (log ratio)” value was at most -4.2.

Take A17C A40C U77A G94A A97C C99U A113G G117U U139G U144G: the “polymerase ribozyme fitness (log ratio)” value is at most -4.2.
